Laboratory results as given in PubChem BioAssay AID493208 (National Center for Advancing Translational Sciences (NCATS), 2011).
The whole screen tested about 44,000 compounds, of which about 340 (0.77%) were called active. Another 5% or so got no clear call; they are omitted. The call rests on the fitted dose curve; in most records, active means well fitted inhibition curve with a large enough effect; inconclusive means small, poorly fitted or top-dose-only effect; inactive means flat fitted curve, though single readings scatter. Some of the results follow.

experiment: Acumen qHTS Assay for Inhibitors of the mTORC1 Signaling Pathway in MEF (Tsc2-/-, p53-/-) Cells: Sytravon; conditions: phospho-rpS6 immunofluorescence/PI, 24 h; series mostly up to 38.3 µM; activity change, negative = inhibition: at the top concentration;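 further: plate controls were DMSO for no effect and rapamycin for full effect; nearly all actives have a fitted effect of over 50% in size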
How it was run: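 Cell-based qHTS: Tsc2-/- p53-/- MEF, 24 h cpd, 37 °C; fix/perm, anti-phospho-S6 Alexa-488 + PI; Acumen 488 nm scan; pS6/PI ratio, % positive cells; rapamycin 7.5 nM = inhibition ref; PI count = viability.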

Structure (SMILES)	activity change, negative = inhibition
O=C(CCCn1c(=O)c2ccccc2n(Cc2ccc(F)cc2Cl)c1=O)NCCc1ccc(Cl)cc1	inactive: -7.03%
COC(=O)c1ccccc1NC(=O)c1nc(S(=O)(=O)Cc2cccc(C)c2)ncc1Cl	inactive: -26.5%
CCOc1ccc(-c2cc(-c3nc(-c4cc(OC)c(OC)c(OC)c4)no3)[nH]n2)cc1Cl	inactive: 5.29%
Cc1ccc(-n2nc(CO)c(C(=O)NCc3cccs3)n2)cc1C	inactive: 0.445%
Cc1cc(C)cc(NC(=O)CCCN2C(=O)COc3ccc(C)cc32)c1	inactive: -11.4%
COc1ccc(C)cc1NC(=O)C1CCN(S(=O)(=O)c2ccc3[nH]c4c(c3c2)CCCCC4)CC1	inactive: -5.9%
Nc1cc(=O)nc(SCC(=O)Nc2ccc(F)cc2)n1-c1ccccc1Cl	inactive: 0.393%
O=C(COc1ccc([N+](=O)[O-])cc1)NCC1(N2CCOCC2)CCCCC1	inactive: -4.73%
Oc1c(C(c2ccccc2F)N2CCCCC2)sc2nc(-c3ccco3)nn12 (configuration not stated)	inactive: -2.95%
CC(=O)c1cccc(NC(=O)CSc2nc(=O)n(Cc3cccnc3)c3c2CCC3)c1	inactive: -5.58%
O=C(CCc1cn(Cc2ccccc2Cl)c2ccccc12)NC1CCCCC1	inactive: -3.46%
Cc1ccc(NC(=O)c2cn3c4c(ccc(Cl)c4c2=O)OC(C)C3)c(C)c1 (configuration not stated)	inactive: 1.6%
CC(C)CC(=O)Nc1ccc(S(=O)(=O)Nc2cc3c(cc2N2CCOCC2)n(C)c(=O)c(=O)n3C)cc1	inactive: -4.87%
CCCCc1nc2ccccc2n2c(-c3ccc(OC)cc3)c3c(=O)n(C)c(=O)n(C)c3c12	inactive: 3.66%
Cc1c(C(=O)N2CCC(C)CC2)c(S(=O)(=O)NCc2ccc(Br)cc2)c(C)n1C	inactive: 0%
COc1ccc(CNC(=O)c2cc(-c3cccc(Cl)c3)on2)cc1	inactive: -10.2%
COc1ccc(-n2ncc(C(=O)N3CCN(c4ncccn4)CC3)c2C2CCN(C(=O)OC(C)(C)C)CC2)cc1	inactive: 6.31%
Cc1ccccc1Nc1c(-c2ccc(Cl)s2)nc2c(C)cccn12	inactive: -23.9%
COc1ccc(OC)c(NC(=O)CCc2c(C)nn(-c3ccc(N4CCCC4)nn3)c2C)c1	inactive: -10.3%
CCOc1ccccc1NC(=O)Cn1c(=O)n(CCCC(=O)NCCc2ccc(C)cc2)c(=O)c2ccccc21	inactive: -6.58%
COc1ccc(-c2c(C)c3cc(OC(=O)N4CCOCC4)ccc3oc2=O)cc1	inactive: 0.943%
CC(C)(C)OC(=O)N1CCC(c2c(C(=O)NCCCN3CCc4ccccc4C3)cnn2-c2ccccc2)CC1	inactive: -18.6%
Cc1ccc(N2CC(NC(=O)c3ccc(S(=O)(=O)N4CCCC4)cc3)CC2=O)cc1 (configuration not stated)	inactive: 0.629%
O=C(Nc1ccc2c(c1)CCCN2C(=O)c1cccs1)c1c(F)cccc1F	inactive: -13.3%

Structure (SMILES)	activity change, negative = inhibition
COc1ccc(-c2nc(C)c(CCNC(=O)C(=O)Nc3c(C)cccc3C)s2)cc1OC	inactive: -4.78%
CCc1ccc(CNC(=O)CN(c2ccc(C)cc2)S(=O)(=O)N(C)C)cc1	inactive: 1.75%
CSc1ccc(CNC(=O)C2CCN(c3nnc(-n4cccc4CNc4ccc(C)cc4)s3)CC2)cc1	inactive: -0.107%
N#Cc1c(-n2ncnc2-c2ccc(Br)cc2)sc2c1CCCCC2	inactive: 9.04%
COc1ccc(OC)c(CCNC(=O)C2CCN(c3ncnc4c3nc3n4CCCCC3)CC2)c1	inactive: -3.53%
CCN(CC)S(=O)(=O)c1ccc2c(c1)c(=O)c(C(=O)NCCc1ccc(OC)c(OC)c1)cn2C	inactive: -14.7%
COc1cccc(CN(C(=O)c2oc3ccc(Br)cc3c2C)C2CCS(=O)(=O)C2)c1 (configuration not stated)	inactive: -5.44%
CCC(=O)N1CCc2cc(Br)cc(S(=O)(=O)NCc3cccc(OC)c3)c21	inactive: 0.376%
Cc1coc2cc3oc(=O)c(CCC(=O)N4CCCCC4)c(C)c3cc12	inactive: -2.44%
COC(=O)CNC(c1ccccc1)c1cc(Br)ccc1NC(=O)c1ccc(Cl)cc1 (configuration not stated)	inactive: 9.76%
Cc1nc2ccn(Cc3ccccc3)c(=O)c2cc1C(=O)Nc1ccc(F)cc1Cl	inactive: -3.92%
CCOC(=O)c1ccccc1NC(=O)c1c(-c2ccccc2)noc1C	inactive: -9.51%
CCN(CC)C(=O)CSc1nc(-c2ccccc2)cc(-c2ccc(OC)cc2)c1C#N	inactive: 2.99%
Cc1ccc(C)c(NC(=O)CCc2nc3cccnc3n2Cc2cccs2)c1	inactive: 1.42%
Cc1ccc(-c2cc(N)n(Cc3cccc(Cl)c3)n2)cc1	inactive: -0.689%
COc1cccc(NC(=O)Cn2c(=O)n(-c3ccccc3)c(=O)c3c4c(sc32)CCCC4)c1	inactive: -11.2%
Cc1cc2nc(NC(=O)c3ccc(S(=O)(=O)N4CCOCC4)cc3)sc2cc1C	inactive: 4.19%
COc1ccccc1-c1noc(-c2ccc(NCc3ccccc3)c([N+](=O)[O-])c2)n1	inactive: -0.327%
CCOc1ccc(NC(=O)Nc2cccc(C)n2)cc1	inactive: -2.51%
Cc1ccc(-n2nc3c(N4CCC(C(=O)NCCc5ccccc5)CC4)nnc(C)c3c2C)cc1	inactive: -4.69%
COCCCN1CN=C(NS(=O)(=O)c2ccc(NC(C)=O)cc2)NC1	inactive: -15.2%
COc1ccc(C)cc1NC(=O)CN(C)S(=O)(=O)c1ccc2c(c1)CCCN2C(C)=O	inactive: -4.63%
COc1ccc(N2Cc3cccc(C(=O)Nc4ccc(C)cc4)c3C2=O)cc1	inactive: -13.6%
